{"source": "the RNAGym collection of RNA variant scans (doi:10.7554/elife.90254)", "parents": {"B1": {"name": "LINE1-mini (parent)", "chain": "GGCAGAGCUCAACACAGCGUGGCAAAGUGGCUGUGGCUAGACUGCC"}}, "note": "Read counts are not given, so values of variants with three or more changes are uncertain."}
{"variants_of": "B1", "assay": "self-cleavage, relative activity (ratio to wild type); higher = more cleavage; in vitro, sequencing; the parent is a self-cleaving ribozyme"}
{"variant": "GGCAGAGCUCAUCACAGAGUGGCAAAGUGGCUGUGGCUAGUCUCCC", "note": "[A12U C18A A41U G44C]", "self-cleavage": 0.05}
{"variant": "GGCCAAGCUGAACACAGCGUGGAAAAGUGGUUGUGGCUGGACUACC", "note": "[A4C G5A C10G C23A C31U A39G G44A]", "self-cleavage": 0.01}
{"variant": "GGCAGACCUCAACACAGCGUGGCAAAGUGGCCGUGGCUAGACUGUC", "note": "[G7C U32C C45U]", "self-cleavage": 0.09}
{"variant": "GGCAGAGCUCGACACAGCGUGGAAAAGUGGCUGUGGCUAGACUGGC", "note": "[A11G C23A C45G]", "self-cleavage": 0.03}
{"variant": "GGCAGAGCUCAACACAGCGUGGCAAACUGGCUGUGGCUGGACUGAC", "note": "[G27C A39G C45A]", "self-cleavage": 0.02}
{"variant": "UGCAGAGCUCAACAAAGCGUGGCAAACUGGCUGUGGCUAGACUGCC", "note": "[G1U C15A G27C]", "self-cleavage": 0.03}
{"variant": "GGCAGAGCUCAACACUGCCUGGCAAAGUGGCUGUGGCGAGAUUGAC", "note": "[A16U G19C U38G C42U C45A]", "self-cleavage": 0.01}
{"variant": "GGCCGAGCUCAACACAGCGUGGCAAAGUGGUUGUGGCUAGACUGCG", "note": "[A4C C31U C46G]", "self-cleavage": 0.02}
{"variant": "GGCAGAGCUCAACACCUCGUGGCAAAGUGGCUUUGGCUAGACUGCC", "note": "[A16C G17U G33U]", "self-cleavage": 0.05}
{"variant": "GACGGAGCUCAACACAGCGUGGUAAAGUGGCUGUGGCUAGACCGCC", "note": "[G2A A4G C23U U43C]", "self-cleavage": 0.39}
{"variant": "GGAAGAGCUCAACACAGCGUGGCAGAUUGGCUGUGGCUAGACUGCC", "note": "[C3A A25G G27U]", "self-cleavage": 0.19}
{"variant": "GGCAGAGCUCAACAAAGCGUGGAAAAGUGGCUGUGGCUACACUGCC", "note": "[C15A C23A G40C]", "self-cleavage": 0.12}
{"variant": "GGCAGAGCUCAACAUAGCGUGACAAAUUGGCUGUGGCAAGACUUCC", "note": "[C15U G22A G27U U38A G44U]", "self-cleavage": 0.52}
{"variant": "GGCAGAGGUCAACACAGCGUUGCAAAGUGGCUGUGGCUAGACAGCC", "note": "[C8G G21U U43A]", "self-cleavage": 0.14}
{"variant": "GCCAGAGCUCAAGACAGCGUGGCAAAGUGGCUGUGGCUGAACACCC", "note": "[G2C C13G A39G G40A U43A G44C]", "self-cleavage": 0.27}
{"variant": "GGCAGAGCUCAUCACAGCGCGGCAAAGUGGCUGUGGCAACACUGCG", "note": "[A12U U20C U38A G40C C46G]", "self-cleavage": 0}
{"variant": "GGCAGAGCUCAACACAGCGUGGCAAAGUGCCUGUGUCUACACUGCC", "note": "[G30C G36U G40C]", "self-cleavage": 0.07}
{"variant": "GGCAGAGCUCAAAACAGCGUGGCACAGUGGCUGUGGCCAGACUGCC", "note": "[C13A A25C U38C]", "self-cleavage": 0.17}
{"variant": "GGCAGAGCUCAACACAGCGUGGCAUAGUGGAUGUGGCUAGACUCCC", "note": "[A25U C31A G44C]", "self-cleavage": 0.03}
{"variant": "GGCAGUGUUCAACACAGCGUGGCAAAGUGGCUGUGGCUACACUGCC", "note": "[A6U C8U G40C]", "self-cleavage": 0.12}
{"variant": "GGCAGAGCUAAACACAGCGUGGCAAAAUGGCUGUGGCUAGAUUGCC", "note": "[C10A G27A C42U]", "self-cleavage": 0.04}
{"variant": "GGCAGUGCUCAACACAGCAUAGCAAAGCGGCUGUGGCUAGACUGCC", "note": "[A6U G19A G21A U28C]", "self-cleavage": 1.13}
{"variant": "GACAGAGCUAAACACAGCGUUGCAAAGUGGCUGUGGCUAGACUGCC", "note": "[G2A C10A G21U]", "self-cleavage": 0.17}
{"variant": "GGCAGCGCUCAACACAGCGUGGCAAGGUGGCUGUAGCUAGACUGCC", "note": "[A6C A26G G35A]", "self-cleavage": 0.11}
{"variant": "GGCACAGCUCAACACAGCAUGGCAGUGUGGCGGUGCCUAGACUGCC", "note": "[G5C G19A A25G A26U U32G G36C]", "self-cleavage": 0}
{"variant": "GGCAUAGCUCAACACAGCGAGGCAAAGUGGCUGUUGCUAGACUGCC", "note": "[G5U U20A G35U]", "self-cleavage": 0.04}
{"variant": "GGCAGAGCUCAACAUAGCGUGGCAAAGUGGCUCUGGUUAGACUGCC", "note": "[C15U G33C C37U]", "self-cleavage": 0.02}
{"variant": "GGCAGAGCUAAACACAUCGUGGUAAAGUGUCUGUGGCAUGACUGCC", "note": "[C10A G17U C23U G30U U38A A39U]", "self-cleavage": 0.02}
{"variant": "GGCAGAGCUCAACACAACCUGGCAAAGUGGCCGUGGCUAGACUGCC", "note": "[G17A G19C U32C]", "self-cleavage": 0.03}
{"variant": "GGCAGAGCUCAACACAGGGUGGCAAAGUGGCUGUGGCUAGACUUGC", "note": "[C18G G44U C45G]", "self-cleavage": 0.62}
{"variant": "GGCAGAGCUCAACACAGCGUGACAAUGUUGCUGUGGCUACACUGCC", "note": "[G22A A26U G29U G40C]", "self-cleavage": 0.16}
{"variant": "GGGAGAGCUCAAGACAGCGUGCCAAAGUGGCUGUGGCUAGACUGCC", "note": "[C3G C13G G22C]", "self-cleavage": 0.12}
{"variant": "UGCAGAGCUCAACACAGCGUGGCAAGGCGGAUGUGGCUAGACUGCC", "note": "[G1U A26G U28C C31A]", "self-cleavage": 0.04}
{"variant": "GGCACAGCUCAACAUAGCGUGGCAAAGUGGCUAUGGCUAGACUGCC", "note": "[G5C C15U G33A]", "self-cleavage": 0.16}
{"variant": "GGCAGACCUCAACAUAGCGUGGCUAAGUUACGGUAGCUAGACUGCC", "note": "[G7C C15U A24U G29U G30A U32G G35A]", "self-cleavage": 0.03}
{"variant": "GGCAGAGCUAAAAACAGCGUGGCAAAGUGGCUGUGGAUAGCUUGCC", "note": "[C10A C13A C37A A41C C42U]", "self-cleavage": 0}
{"variant": "GGCAGAGCUCAAUACAGCGUGGCACAGUGGCUGUAGCUAGACUGCC", "note": "[C13U A25C G35A]", "self-cleavage": 0.42}
{"variant": "GGCAAAGCUCGACAGAGCGUGGCAAAGUUGCUGUGGCUAGACUGCC", "note": "[G5A A11G C15G G29U]", "self-cleavage": 0.03}
{"variant": "GGCGGAGCUCAACACAGCGUGGCAAAGGGGCUGUGGCAAGACUGUC", "note": "[A4G U28G U38A C45U]", "self-cleavage": 0.18}
{"variant": "GGCAGAGCUCAACACAGCGCGUGAAAGUGGCUUUGGCUAGACUGCC", "note": "[U20C G22U C23G G33U]", "self-cleavage": 1.1}
{"variant": "GGCAGAGCUCGACACAGCGUGGCAAAGUGGCGGUGGCUAGACUGUC", "note": "[A11G U32G C45U]", "self-cleavage": 0}
{"variant": "GGCAGAGCUCAACACUGCGUGGCAAAAUGUCCGUGGCUAGACUGCC", "note": "[A16U G27A G30U U32C]", "self-cleavage": 0.21}
{"variant": "GGCAUAGCUCAACACAGCGUUGCAAACUGGCUGUGGCUAGACUGCC", "note": "[G5U G21U G27C]", "self-cleavage": 0.23}
{"variant": "GGCAGAGCUCAACACCGCGCGGGAAAGCGGCUUUGGCUAGUAUGCC", "note": "[A16C U20C C23G U28C G33U A41U C42A]", "self-cleavage": 0.04}
{"variant": "GGCAGAGCUCAACGCAGCGUGGCAAAGUGGCUGUGGCUACCCUGCC", "note": "[A14G G40C A41C]", "self-cleavage": 0.03}
{"variant": "GGCAGAGCUCAACACAGCGUGACAAACCAGCUGAGGCUAGACUGCC", "note": "[G22A G27C U28C G29A U34A]", "self-cleavage": 0.52}
{"variant": "GGCAGAGCCCAACACAGAGUGGCAAAGUGGCUUUGGCUAGACUGCC", "note": "[U9C C18A G33U]", "self-cleavage": 0.02}
{"variant": "GGCAGAGCUCAACACGGAGUGGCAAAUUGGCUUUGGCUAGAGUGUC", "note": "[A16G C18A G27U G33U C42G C45U]", "self-cleavage": 0.01}
{"variant": "GGCUGAGCUAAACACCGCGUGGCAAAGUGGCUGUGGCUAGACUGUC", "note": "[A4U C10A A16C C45U]", "self-cleavage": 0.04}
{"variant": "GGCAGUGCUCAACAAAGCGUUGGAAAGUGGCUGUGGCUAGACUGCC", "note": "[A6U C15A G21U C23G]", "self-cleavage": 0.03}
{"variant": "GGCAGAGCACAACACAGCGUGGCAAAGGGGUUAUGGCUAAACUGCC", "note": "[U9A U28G C31U G33A G40A]", "self-cleavage": 0.05}
{"variant": "GGCAGUGCUCAACAUAGCGUGGCAAAGUGGCUGUGGCUACACUGCC", "note": "[A6U C15U G40C]", "self-cleavage": 0.25}
{"variant": "GGCUGAGCUCAACACAGCUUGGCAAAGCGGCUGUGGCUAGACUGAC", "note": "[A4U G19U U28C C45A]", "self-cleavage": 0.02}
{"variant": "GGCAGGGCUCAACACAGCGUGGCAGAGUGGCUGUGACUAGACUGCC", "note": "[A6G A25G G36A]", "self-cleavage": 0.06}
{"variant": "GGACGAGCUCAACAAAGCGUGGCUAAGUGGCUAUGGCUUUACUGCC", "note": "[C3A A4C C15A A24U G33A A39U G40U]", "self-cleavage": 0.08}
{"variant": "GGCAGAGCUCAACGCAGCUUGGCAAAGUGACUGUGGCUAGACUUCC", "note": "[A14G G19U G30A G44U]", "self-cleavage": 0.05}
